PubChem BioAssay AID686978 (National Center for Advancing Translational Sciences (NCATS), 2013)
In all, about 420,000 compounds went through this assay and about 64,000 (15%) were called active. Inconclusive results, whose numbers are uncertain, are shown with a selection of clear calls. The call rests on the fitted dose curve; in most records, active means well fitted inhibition curve with a large enough effect; inconclusive means small, poorly fitted or top-dose-only effect; inactive means flat fitted curve, though single readings scatter. No potency is given beside an inconclusive call; the fits are too rough.
On the % scale 0 is the no-effect control and ±100 the full control effect; potency means the concentration at half of the fitted maximal effect; tags describe the fitted curve by direction and shape.

Assay: qHTS for Inhibitors of human tyrosyl-DNA phosphodiesterase 1 (TDP1): qHTS in cells in absence of CPT; further: nearly all actives have a fitted effect of over 55% in size
Conditions: DT40 Tdp1-/- hTDP1 cells, no CPT, ATP luminescence, 48 h; activity change, negative = growth inhibition: at 46.2 µM (top of the series) unless noted
How it was run: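 Seeded 400 DT40-hTDP1 cells/well (vehicle DMSO, no 20 nM CPT); pinned compounds; ≥48 hr at 37 °C; CellTiter-Glo luminescence as viability measure.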
For COCCCNC(=O)c1cc2cc3cc(OC)ccc3nc2o1, the Potency was inconclusive [inhibitor, partial curve]. In the case of O=C(CSc1ncn[nH]1)Nc1nsc(-c2ccccc2)n1, the “activity change, negative = growth inhibition” value is reported as inactive: -15.2%. In the case of Cc1c(Br)c(=O)oc2c(Br)c(O)ccc12, the “activity change, negative = growth inhibition” value is reported as inactive: -3.44%. For COc1cccc(NC(=O)CN(C)C(=O)c2c(C)nn(Cc3ccc(C)cc3)c2Cl)c1, the Potency was inconclusive [inhibitor, single point]. In the case of Cc1[nH]c2ccccc2c1C1=NNC(=Nc2ccc(F)cc2)SC1, the Potency is reported as inconclusive [inhibitor, partial curve]. With CCCOc1ccc(/C=N/Nc2ccccc2[N+](=O)[O-])c(OCCC)c1 the Potency was inconclusive [inhibitor, single point]. For COc1ccc2oc(-c3cccc(NC(=O)CSc4ccc(Cl)cc4)c3)nc2c1, the Potency was inconclusive [inhibitor, single point]. With CCCN1C(=O)/C(=N\OCC(=O)Nc2ccc(C(C)C)cc2)c2ccccc21 the activity change, negative = growth inhibition was inconclusive: -34.5% [inhibitor]. In the case of O=C(O)C1CCCN1c1ncnc2ccccc12 (centres undefined), the “activity change, negative = growth inhibition” value is reported as inactive: -10.2%. In the case of Cc1nnc(SCCn2c(N(C)Cc3ccccc3)nc3c2c(=O)[nH]c(=O)n3C)s1, the “activity change, negative = growth inhibition” value is reported as inactive: -12.5%. For O=C(NNc1ccccc1[N+](=O)[O-])Nc1cccc(Cl)c1, the Potency was active: 14.6 µM. In the case of Cc1ncc(C(O)c2ccc(N(C)C)cc2)n1Cc1ccccc1 (centres undefined), the Potency is reported as active: 23.1 µM. For CC(Oc1cccc(Cl)c1)C(=O)Nc1ccccc1C(=O)N1CCCCC1 (centres undefined), the Potency was inconclusive [inhibitor, single point]. With O=C(NNCNNC(=O)c1ccncc1)c1ccncc1 the Potency was inconclusive [inhibitor, single point]. For S=C(c1cn(CCOc2ccccc2)c2ccccc12)N1CCCC1, the Potency was active: 20 µM. With CCCn1c(SCC(=O)NCCc2ccccc2)nnc1-c1ccco1 the “activity change, negative = growth inhibition” value was inactive: -8.8%. For O=C(CN1N=C(c2ccc(Cl)cc2)CCC1=O)NCCc1ccccc1, the Potency was inconclusive [inhibitor, single point]. In the case of Cc1cc(OCCSc2nnc(-c3cccs3)n2C)ccc1Cl, the Potency is reported as inconclusive [inhibitor, partial curve, poor fit]. In the case of Cc1cc(N2C(=O)C(O)=C(C(=O)c3cc4ccccc4o3)C2c2cccc(Cl)c2)no1 (centres undefined), the Potency is reported as inconclusive [inhibitor, single point]. In the case of COc1ccc(C(=O)CC(=O)C(=O)Nc2ccccc2Cl)cc1, the Potency is reported as active: 10.3 µM. With O=C1CN(C(=O)c2ccccc2[N+](=O)[O-])C(c2ccccc2)c2cc(Br)ccc2N1 (centres undefined) the Potency was inconclusive [inhibitor, single point]. For CC(C)CNC(=S)Nc1ccc(Oc2ccccc2)cc1, the Potency was inconclusive [inhibitor, partial curve]. For CCOC(=O)c1c(NC(=O)CCC(=O)N(CC)CC)sc2c1CC(C)(C)OC2, the Potency was inconclusive [inhibitor, single point]. With Nc1nc(NC2CC2)c2ncn([C@@H]3C=C[C@@H](CO)C3)c2n1 the Potency was active: 15 µM. With Cc1ccc(C2(c3ccccc3)NC(=O)N(CC(=O)N(C)C3CCS(=O)(=O)C3)C2=O)cc1C (centres undefined) the “activity change, negative = growth inhibition” value was inactive: -28.3%. For O=C(CN1CCN(Cc2ccc(F)cc2)CC1)Nc1ccccc1F, the “activity change, negative = growth inhibition” value was inactive: -0.66%. For Cc1ccc2cc(C3CC(c4ccco4)=NN3S(=O)(=O)c3ccccc3)c(Cl)nc2c1 (centres undefined), the “activity change, negative = growth inhibition” value was inactive: -23.8%. For CCc1c(C)nc2nncn2c1NCc1ccc(Cl)cc1, the Potency was active: 4.61 µM. For Cc1ccc(NC(=O)Cn2nc(Cc3ccncc3)c3ccccc3c2=O)c(Cl)c1, the “activity change, negative = growth inhibition” value was inactive: 4.74%. With CCc1ccccc1NC(=O)CN1CCN(C(=O)CN2C(=O)NC3(CCCCC3C)C2=O)CC1 (centres undefined) the Potency was inconclusive [inhibitor, partial curve]. In the case of CCOC(=O)C1=C(CNCc2ccccc2Cl)NC(=O)NC1c1cccc([N+](=O)[O-])c1 (centres undefined), the Potency is reported as inconclusive [inhibitor, single point]. With Cc1ccc(NC(=O)COC(=O)c2cccc(C)c2[N+](=O)[O-])cc1S(=O)(=O)N1CCCCC1 the Potency was inconclusive [inhibitor, single point]. With O=C(NCC(c1ccco1)N1CCCC1)c1cc2cc(Cl)ccc2o1 (centres undefined) the Potency was inconclusive [inhibitor, single point]. For Cc1cccc(NC(=S)N2CCN(c3ccc(F)cc3)CC2)c1, the Potency was inconclusive [inhibitor, partial curve]. For CCCC(c1nnnn1Cc1ccc(OC)cc1)N1CCN(C(=O)c2ccco2)CC1 (centres undefined), the “activity change, negative = growth inhibition” value was inactive: -19.4%. In the case of Nc1nonc1-n1nnc(C(=O)N/N=C/c2ccco2)c1CSc1ccc(Cl)cc1, the Potency is reported as inconclusive [inhibitor, single point]. In the case of CCOc1ccc(CCN2CN(CC)CNC2=S)cc1OCC, the Potency is reported as active: 20.6 µM. For O=C(/C=C/c1ccccc1)N1c2ccccc2Sc2ccc(C(F)(F)F)cc21, the “activity change, negative = growth inhibition” value was inactive: -8.26%. For NC(=O)C1(N2CCCCC2)CCN(c2ccc3nnc(-c4ccccc4)n3n2)CC1, the Potency was inconclusive [inhibitor, single point]. In the case of CCCCC(=O)N(C)c1c(CC)nc2c(OCc3ccccc3C)cccn12, the Potency is reported as active: 29.1 µM. In the case of CCOc1ccc(NC(=O)c2oc3ccccc3c2NC(=O)c2ccc(OC)cc2OC)cc1, the Potency is reported as active: 18.4 µM. With S=C1NCN(Cc2ccco2)CN1Cc1ccco1 the activity change, negative = growth inhibition was inconclusive: -21.8% [inhibitor]. In the case of O=C(N/N=C/c1cccc([N+](=O)[O-])c1)c1cccc2cc[nH]c12, the “activity change, negative = growth inhibition” value is reported as inactive: -25.8%. With COc1cc(CNCCSc2nnnn2C)cc(Cl)c1OCc1ccccc1 the Potency was inconclusive [inhibitor, single point]. With Cc1cc(C(=O)Nc2ccncc2)ccc1[N+](=O)[O-] the Potency was active: 14.6 µM. For COc1cc(OC)c2c(=O)c(O)c(-c3ccc(OC)c(OC)c3)oc2c1, the Potency was inconclusive [inhibitor, partial curve]. In the case of Cc1ccc2c(c1)CCCN2CC(=O)Nc1cccc(S(=O)(=O)N2CCCC2)c1, the Potency is reported as inconclusive [inhibitor, single point]. With CC(NC(=O)CCN1C(=O)c2ccccc2C1=O)c1ccc2c(c1)CCCC2 (centres undefined) the “activity change, negative = growth inhibition” value was inactive: -12.3%. With O=C(COC(=O)C1COc2ccccc2O1)c1ccccc1 (centres undefined) the “activity change, negative = growth inhibition” value was inactive: 3.82%. For Cc1cccc(Cn2c(C)nc3ccc([N+](=O)[O-])cc3c2=O)c1, the Potency was inconclusive [inhibitor, single point]. In the case of CC1(C)Cc2c(C#N)c(OCC(=O)c3ccc(Cl)cc3)nc(-c3ccco3)c2CO1, the Potency is reported as inconclusive [inhibitor, single point]. For Nc1ccc(C#Cc2ccccc2)cc1, the “activity change, negative = growth inhibition” value was inactive: 1.51%. For Cc1cc(Cl)ccc1NC(=O)NC1CCN(S(=O)(=O)c2ccc(F)cc2)CC1, the Potency was inconclusive [inhibitor, single point]. In the case of CSc1ncc(CN2CCc3c([nH]c4ccccc34)C2c2cccc(C)n2)cn1 (centres undefined), the Potency is reported as active: 25.9 µM. In the case of CC(=O)C1=C(c2ccccc2)NC(=O)NC1c1ccc(O)c(O)c1 (centres undefined), the “activity change, negative = growth inhibition” value is reported as inactive: -9.05%. For O=C(CC1(O)C(=O)N(Cc2ccccc2Cl)c2ccccc21)c1ccco1 (centres undefined), the Potency was active: 3.66 µM. In the case of N#CC(C#N)=c1ccc2c(c1)N1C3=C(CCCC3)CC3CCCCC31N=2 (centres undefined), the Potency is reported as inconclusive [inhibitor, single point]. In the case of O=C(O)COc1ccc(-c2nc(-c3ccccc3)c(-c3ccccc3)[nH]2)cc1, the “activity change, negative = growth inhibition” value is reported as inactive: -21.3%. In the case of CCc1cc(C(c2ccccc2OC)N2CCOCC2)c(NC(=O)c2ccccc2)s1 (centres undefined), the Potency is reported as inconclusive [inhibitor, single point]. In the case of O=C(NCc1ccccc1Cl)C1CCN(S(=O)(=O)c2ccc(N3CCCC3=O)cc2)CC1, the Potency is reported as inconclusive [inhibitor, single point]. In the case of CCOc1cc(/C=C(\CC(=O)O)c2nc3ccccc3s2)ccc1OCC(=O)Nc1cccc(C(F)(F)F)c1, the activity change, negative = growth inhibition is reported as inconclusive: -32.3% [inhibitor]. For CC(=O)N1CCN(c2ccccc2NC(=O)c2cc3ccccc3o2)CC1, the Potency was inconclusive [inhibitor, partial curve]. In the case of COc1cccc(NC(=O)Nc2nnc(N3CCCCC3C)s2)c1 (centres undefined), the Potency is reported as inconclusive [inhibitor, single point]. In the case of CCc1ccc2[nH]c(=O)c(CN(Cc3ccccc3)C(=O)Nc3ccccc3OC)cc2c1, the Potency is reported as inconclusive [inhibitor, single point]. For Cc1ccc(C2CC(c3cccc(C)c3)n3nc(N)nc3N2)cc1 (centres undefined), the Potency was inconclusive [inhibitor, partial curve]. For O=CNC(n1cnc2c(N3CCOCC3)ncnc21)C(Cl)(Cl)Cl (centres undefined), the “activity change, negative = growth inhibition” value was inactive: -23.5%. With COc1ccc(/C=N/NC(=O)c2cccc(NC(=O)c3ccccc3Cl)c2)cc1 the Potency was active: 4.61 µM. For COc1ccc(C(=O)Cc2ccc3c(c2)OCO3)c(O)c1, the Potency was inconclusive [inhibitor, full curve, poor fit]. With CCCC/C(=N\NC(=O)c1ccc(Br)o1)c1ccccc1 the Potency was inconclusive [inhibitor, single point]. With COc1ccc(NC(=O)c2ccco2)cc1NC(=O)c1ccccc1F the “activity change, negative = growth inhibition” value was inactive: -15.4%. With COc1cc(/C=N\NC(=O)c2nonc2N)c(OC)cc1Br the Potency was active: 29.1 µM. In the case of CCCCC(=O)N/N=C/c1ccc(-c2ccc([N+](=O)[O-])cc2)o1, the Potency is reported as active: 16.4 µM. In the case of C#CCn1c(S(=O)(=O)Cc2ccc(OC)cc2)nc(-c2ccccc2)c1-c1ccccc1, the Potency is reported as inconclusive [inhibitor, single point]. With Cc1ccc(Nc2nc(CSc3nnc(-c4cccnc4)n3-c3ccccc3C)cs2)cc1 the Potency was active: 14.6 µM.
